From PubChem BioAssay AID485294 (National Center for Advancing Translational Sciences (NCATS), 2010)
About 150 (0.041%) of roughly 370,000 compounds were called active. The shares of active, inactive and inconclusive entries below differ from those in the screen. The call rests on the fitted dose curve; in most records, active means well fitted inhibition curve with a large enough effect; inconclusive means small, poorly fitted or top-dose-only effect; inactive means flat fitted curve, though single readings scatter. Potencies of inconclusive entries are left out as doubtful fits.
Further: nearly all actives have a fitted effect of over 25% in size.
Potency means the concentration at half of the fitted maximal effect; tags describe the fitted curve by direction and shape.
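Wherever activity change, negative = inhibition is given: 0% = no-compound wells and -100% = no-enzyme wells.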

These compounds were tested against Beta-lactamase (Escherichia coli (strain K12)) (UniProt P00811) (assay: qHTS Inhibitors of AmpC Beta-Lactamase (assay with detergent)). Conditions: AmpC hydrolysis of nitrocefin, absorbance 480 nm, 0.01% Triton; activity change, negative = inhibition: at 114 µM (top of the series).
Chain of UniProt P00811 (P00811 whole entry, looked up): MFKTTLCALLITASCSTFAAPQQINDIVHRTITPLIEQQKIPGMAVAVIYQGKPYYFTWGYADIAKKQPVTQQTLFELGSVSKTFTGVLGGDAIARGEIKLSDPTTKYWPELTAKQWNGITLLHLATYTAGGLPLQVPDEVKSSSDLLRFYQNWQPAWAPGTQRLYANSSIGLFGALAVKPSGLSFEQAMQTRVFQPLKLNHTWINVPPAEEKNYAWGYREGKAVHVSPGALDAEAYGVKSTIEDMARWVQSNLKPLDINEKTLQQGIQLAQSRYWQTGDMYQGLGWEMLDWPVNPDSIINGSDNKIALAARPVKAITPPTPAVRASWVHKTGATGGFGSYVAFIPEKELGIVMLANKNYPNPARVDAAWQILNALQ
How it was run: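 AmpC (5.3 nM in the dispensed reagent) in 20 mM phosphate pH 7.0 with 0.01% (detergent screen) or 0.0001% Triton X-100 was preincubated with compounds for 15 min at room temperature. Nitrocefin was then added from an 800 uM solution, and hydrolysis was followed at 480 nm.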
In the case of `NC1=NC(c2ccc(F)cc2)n2c(nc3ccccc32)N1` (stereo not given), the Potency is reported as inconclusive [inhibitor, full curve, poor fit].
In the case of `O=C(CSc1nc2nn(-c3ccccc3)c(=O)c-2c2n1CCCCC2)Nc1ccccc1[N+](=O)[O-]`, the Potency is reported as inconclusive [inhibitor, full curve, poor fit].
For `CCOC(=O)Cn1c(=O)c2c(nc(N3CCOCC3)n2Cc2ccccc2)n(C)c1=O`, the “activity change, negative = inhibition” value was inactive: -5.36%.
With `COCCn1c(C)cc(C(=O)CSc2ncn[nH]2)c1C` the “activity change, negative = inhibition” value was inactive: -8.53%.
With `CC(C)=CCN1CCN(Cc2cc3ccccc3[nH]2)CC1CCO` (stereo not given) the Potency was inconclusive [inhibitor, partial curve, poor fit].
In the case of `O=C(Cn1cnc2c(oc3nc4c(cc32)CCCC4)c1=O)Nc1ccccc1`, the “activity change, negative = inhibition” value is reported as inactive: -2.97%.
For `CCOC(=O)C(NC(C)=O)(Nc1cccc(F)c1)C(F)(F)F` (stereo not given), the Potency was inconclusive [inhibitor, full curve, poor fit].
With `COc1cc2cc(CCCOC(=O)c3ccco3)oc(=O)c2cc1OC` the “activity change, negative = inhibition” value was inactive: 7.36%.
In the case of `Cc1cc(NC(=O)CSCC(=O)Nc2ccccc2Oc2ccccc2)no1`, the Potency is reported as inconclusive [inhibitor, full curve, poor fit].
`O=C1CSc2ccc(S(=O)(=O)NCc3ccc(F)cc3)cc2N1` was tested, and the Potency was inconclusive [inhibitor, partial curve].
`CC(=O)Nc1ccc(NC(=O)c2c(C)nn(Cc3ccccc3Cl)c2C)cc1` was tested, and the Potency was inconclusive [inhibitor, full curve, poor fit].
In the case of `CCc1c(C)nc2[nH]nc(-c3ccccc3C)n2c1=O`, the “activity change, negative = inhibition” value is reported as inactive: -1.28%.
In the case of `Cc1ccc(C(=O)Nn2cnnc2)cc1Cl`, the Potency is reported as inconclusive [inhibitor, full curve, poor fit].
With `COc1ccc(CCNc2nc(C)cc(C)n2)cc1OC` the Potency was inconclusive [inhibitor, partial curve, poor fit].
With `Cc1c(NC(=O)c2ccc3c(c2)C(=O)N(CC2CCCO2)C3=O)cccc1C(=O)O` (stereo not given) the Potency was inconclusive [inhibitor, partial curve].
For `CN(C)CCNc1oc(-c2ccccc2F)nc1C#N`, the Potency was inconclusive [inhibitor, full curve, poor fit].
`Cc1cc(Cl)ccc1NC(=O)CN1C(=O)COc2ccc(S(=O)(=O)Nc3ccccc3)cc21` was tested, and the “activity change, negative = inhibition” value was inactive: 21.7%.
`O=C(N/N=C/c1ccccc1Cl)c1n[nH]c2c1CCCC2` was tested, and the Potency was inconclusive [inhibitor, full curve, poor fit].
In the case of `O=C(Nc1nc2n(n1)C(c1ccccc1)C=C(c1ccc(Cl)cc1)N2)c1ccco1` (stereo not given), the “activity change, negative = inhibition” value is reported as inactive: 9.02%.
For `C=C(C)Cn1c(SCC(=O)NCc2ccco2)nc2sc3c(c2c1=O)CCC3`, the Potency was inconclusive [inhibitor, full curve, poor fit].
For `CSc1nnc(Cn2c(=O)sc3ccccc32)n1CCc1ccccc1`, the Potency was inconclusive [inhibitor, full curve].
`COc1ccc(N2Cc3cccc(C(=O)Nc4ccc(Cl)cc4)c3C2=O)cc1` was tested, and the “activity change, negative = inhibition” value was inactive: -14%.
`O=S(=O)(NCCOc1cccc2cccnc12)c1ccc(F)cc1` was tested, and the Potency was inconclusive [inhibitor, full curve, poor fit].
`CCn1c(CNC(=O)Cc2ccc(OC)cc2)nnc1SCC(=O)Nc1nccs1` was tested, and the Potency was inconclusive [inhibitor, single point].
With `CN(CC(=O)Nc1cccc(F)c1)C(=O)c1ccc(C2SCCS2)cc1` the Potency was inconclusive [inhibitor, full curve].
`CCN1C(=O)/C(=C2\SC(=S)N(NC(=O)c3cccnc3)C2=O)c2ccccc21` was tested, and the “activity change, negative = inhibition” value was inactive: -1.47%.
With `O=C(COc1ccc(F)cc1)Nc1nnc(SCc2cc(=O)n3ccccc3n2)s1` the “activity change, negative = inhibition” value was inactive: 6.96%.
`CC(=O)N1CCN(C(=O)c2cccc(S(=O)(=O)Nc3ccc(C)cc3)c2)CC1` was tested, and the Potency was inconclusive [inhibitor, full curve, poor fit].
`N#C/C(C(=O)c1ccccc1)=C1/SC=C(N)N1c1ccccc1` was tested, and the Potency was inconclusive [inhibitor, full curve, poor fit].
For `Nc1ccccc1Nc1c(F)c(F)nc(F)c1Cl`, the “activity change, negative = inhibition” value was inactive: -3.47%.
In the case of `C/C(CC(=O)NCCCN1CCOCC1)=N\NC(=O)COc1ccc(Cl)cc1`, the Potency is reported as inconclusive [inhibitor, full curve].
With `O=C(NCc1ccccn1)Nc1ccccc1Cl` the “activity change, negative = inhibition” value was inactive: 0.883%.
With `COc1ccc(C2=C(Nc3ccc(C)cc3)c3ccccc3C2=O)cc1` the Potency was inconclusive [inhibitor, full curve, poor fit].
`CC(Oc1ccc2c(c1)oc(=O)c1ccccc12)C(=O)NCCN1CCOCC1` (stereo not given) was tested, and the Potency was inconclusive [inhibitor, full curve, poor fit].
With `CCCCP(=O)(O)c1ccccc1` the Potency was inconclusive [inhibitor, partial curve, poor fit].
`CCc1ccc(C(=O)C(C)OC(=O)Cn2cnc3c2c(=O)n(C)c(=O)n3C)cc1` (stereo not given) was tested, and the Potency was inconclusive [inhibitor, partial curve, poor fit].
With `O=C(NCCCNc1ccc([N+](=O)[O-])cc1)C(F)(F)F` the “activity change, negative = inhibition” value was inactive: 1.4%.
For `Cc1ccc(-n2c(SCC(=O)OC(C)C)nnc2-c2ccncc2)cc1`, the Potency was inconclusive [inhibitor, full curve, poor fit].
`Cn1cc(C(=O)OCC(=O)NC2(C#N)CCCCC2)c2ccccc21` was tested, and the Potency was inconclusive [inhibitor, single point].
`CCn1c(SCC(=O)NC2CC2)nnc1-c1ccccc1OC` was tested, and the Potency was inconclusive [inhibitor, full curve].
With `COc1cccc(C(=O)Nc2ccc(NC(=O)C3CCCCC3C(=O)O)cc2)c1` (stereo not given) the “activity change, negative = inhibition” value was inactive: -4.34%.
For `C=CCN1C(=O)c2ccc(C(=O)N(C)CC(=O)Nc3ccc(Br)cc3C)cc2C1=O`, the Potency was inconclusive [inhibitor, partial curve, poor fit].
For `CC(OC(=O)COc1ccccc1Cc1ccccc1)C(=O)N(C)c1ccccc1` (stereo not given), the “activity change, negative = inhibition” value was inactive: -11.4%.
For `Cc1[nH]c(C)c(S(=O)(=O)Nc2ccccc2Cl)c1C(=O)N1CCCC1`, the Potency was inconclusive [inhibitor, full curve, poor fit].
`Cc1ccc(SCC(=O)NCc2ccco2)cc1` was tested, and the “activity change, negative = inhibition” value was inactive: 1.4%.
For `Cc1cc(OCC(=O)N2CCC(C(=O)O)CC2)c2c(C)cc(=O)oc2c1`, the Potency was inconclusive [inhibitor, full curve].
With `O=C(c1cccnc1Nc1ccc2c(c1)CCC2)N1CCOCC1` the Potency was inconclusive [inhibitor, full curve, poor fit].
In the case of `O=c1[nH]c(O)c(C=Nc2cc(F)cc(F)c2)c(=O)[nH]1`, the Potency is reported as inconclusive [inhibitor, partial curve].
In the case of `Cc1cc(C)cc(NC(=O)CSc2nnc(-c3ccc(S(=O)(=O)N4CCCC4)cc3)o2)c1`, the Potency is reported as inconclusive [inhibitor, full curve, poor fit].
With `CCCOc1ccc(N2C(=O)CC(N3CC=C(c4ccccc4)CC3)C2=O)cc1` (stereo not given) the “activity change, negative = inhibition” value was inactive: -2.03%.
`COc1ccc(C2=Nc3ccc(OC(F)(F)F)cc3NC(c3cccnc3)=N2)cc1` was tested, and the “activity change, negative = inhibition” value was inactive: -4.38%.
For `CCOP(=O)(c1ccccc1)C(O)c1ccccc1` (stereo not given), the Potency was inconclusive [inhibitor, partial curve].
`CCOc1ccc(C(Nc2cccnc2)c2cc(Cl)c3cccnc3c2O)cc1` (stereo not given) was tested, and the “activity change, negative = inhibition” value was inactive: -4.19%.
With `Cc1cc(Cl)c2oc(C(=O)N(C)CCc3cnn(C)c3)c(C)c2c1` the “activity change, negative = inhibition” value was inactive: 1.29%.
`CSc1nsc(SCC(=O)Nc2ccc(OC(C)=O)cc2)n1` was tested, and the “activity change, negative = inhibition” value was inactive: 2.95%.
`CC(=O)Nc1ccc(S(=O)(=O)N(Cc2ccccc2)c2ccccn2)cc1` was tested, and the Potency was inconclusive [inhibitor, full curve, poor fit].
With `Cc1ccc(NC(=O)Cn2cnc3c2c(=O)n(C)c(=O)n3C)cc1C` the “activity change, negative = inhibition” value was inactive: 3.25%.
`CC[C@@H](C)C(NC(=O)OC(C)(C)C)c1cn([C@@H](Cc2cc3ccccc3[nH]2)C(=O)N2CCN(C(=O)OC(C)(C)C)CC2)nn1` (stereo not given in full) was tested, and the “activity change, negative = inhibition” value was inactive: 10.3%.
`COc1ccc(CCNC(=O)Cn2cnc3c(nnn3Cc3ccc(C)cc3)c2=O)cc1OC` was tested, and the Potency was inconclusive [inhibitor, full curve, poor fit].
`CCc1c(C)sc2nc(C(C)C)nc(SCC(=O)N3CCc4ccccc4C3)c12` was tested, and the “activity change, negative = inhibition” value was inactive: -0.197%.
For `O=C(COc1ccccc1)NS(=O)(=O)c1ccccc1`, the Potency was inconclusive [inhibitor, full curve, poor fit].
With `Cc1ccc(Oc2nc3c(c(=O)n(Cc4ccccc4F)c(=O)n3C)n2C)cc1` the “activity change, negative = inhibition” value was inactive: -11.6%.
In the case of `CCc1ccc(NC(=O)C2C3C=CC(C4CC34)C2C(=O)O)cc1` (stereo not given), the Potency is reported as inconclusive [inhibitor, single point].
For `Cc1ccc(NC(=O)CSc2nc3ccc(NC(=O)CCc4ccccc4)cc3s2)cc1`, the “activity change, negative = inhibition” value was inactive: 18.3%.
`COc1ccc(/C=C/C(=O)Oc2cc(O)cc(O)c2)cc1` was tested, and the Potency was inconclusive [inhibitor, full curve, poor fit].
`Cc1ccc(S(=O)(=O)Nc2ccccc2CNc2ccc(Br)cn2)cc1` was tested, and the Potency was inconclusive [inhibitor, full curve, poor fit].
`CC(C)CC(=O)Nc1ccnn1C1CCN(C(=O)c2ccc(Cl)cc2F)CC1` was tested, and the Potency was inconclusive [inhibitor, full curve, poor fit].
In the case of `NS(=O)(=O)OCC1CCCCC1`, the Potency is reported as inconclusive [inhibitor, full curve, poor fit].
`COc1ccc(NC(=O)CSc2cn(CCNC(=O)c3c(F)cccc3F)c3ccccc23)cc1` was tested, and the “activity change, negative = inhibition” value was inactive: -1.54%.
For `Nc1nc(SCC(=O)Nc2ccccc2Sc2ccc(Cl)cc2)n[nH]1`, the Potency was inconclusive [inhibitor, full curve, poor fit].
